# Measurements reported in article PMC8989322 (2022).
# B1: reference 3D7 ctCSP peptide (domain or fragment)
# chain: not shown
# Columns and labels:
# 1504 = test: SPR
# 1550 = test: SPR
binder,measurement,setting,value
B1,Kd,1504,0.687 nM
same,Kd,1550,0.431 nM
